Data on 108 compounds can be found in PubChem BioAssay AID488969 (Vanderbilt High Throughput Screening Facility, 2010).

The full ranking holds about 110,000 compounds; the median of “z-score” is about -0.1, and the highest 2% start at about 2. The list shows a part of the results. Activity calls are given as the source filed them.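 How the source made its calls: active means z-score in the third read window above 3 or below -3; inactive means the rest.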

This assay has as its target Metabotropic glutamate receptor 8 (Rattus norvegicus) (UniProt P70579). The experiment in a line: rat mGluR8 modulators via GIRK flux, primary screen, cell-based, thallium flux, HTS (AID 488969). As to conditions: HEK293 rat mGluR8, GIRK (G protein-gated inwardly rectifying potassium channel) thallium flux, FluoZin2; at 10 µM; stronger effect = higher value; submaximal glutamate (EC20) added with thallium.
Chain of UniProt P70579 (P70579 whole entry, looked up): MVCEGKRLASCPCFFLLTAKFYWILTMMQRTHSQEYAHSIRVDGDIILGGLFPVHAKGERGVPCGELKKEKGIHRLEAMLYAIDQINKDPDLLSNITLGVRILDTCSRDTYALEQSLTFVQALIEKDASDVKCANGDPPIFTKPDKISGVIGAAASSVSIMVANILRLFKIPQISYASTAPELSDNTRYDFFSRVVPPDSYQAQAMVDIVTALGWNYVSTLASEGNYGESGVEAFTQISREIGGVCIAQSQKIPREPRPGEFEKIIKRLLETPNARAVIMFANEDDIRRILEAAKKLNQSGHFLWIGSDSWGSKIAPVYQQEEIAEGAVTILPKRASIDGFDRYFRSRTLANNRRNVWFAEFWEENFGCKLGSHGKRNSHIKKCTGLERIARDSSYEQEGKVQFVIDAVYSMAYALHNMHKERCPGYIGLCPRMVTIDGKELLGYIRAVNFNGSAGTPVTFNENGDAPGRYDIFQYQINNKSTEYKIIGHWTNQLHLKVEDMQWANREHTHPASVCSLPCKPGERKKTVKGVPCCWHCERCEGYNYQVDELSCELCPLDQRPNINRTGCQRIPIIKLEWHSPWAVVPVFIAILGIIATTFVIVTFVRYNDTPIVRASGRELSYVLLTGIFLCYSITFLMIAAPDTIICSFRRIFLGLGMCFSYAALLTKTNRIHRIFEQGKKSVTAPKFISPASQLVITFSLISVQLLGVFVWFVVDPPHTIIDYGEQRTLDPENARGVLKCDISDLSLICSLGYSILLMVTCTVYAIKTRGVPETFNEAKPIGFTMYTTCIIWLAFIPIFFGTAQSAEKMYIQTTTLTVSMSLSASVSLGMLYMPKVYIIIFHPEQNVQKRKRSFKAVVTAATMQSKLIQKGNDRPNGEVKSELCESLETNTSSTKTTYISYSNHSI
Consider `CCCOc1ccc2oc(=O)c3c(c2c1)CCCN3C(=O)CN1CCCC(C(=O)OCC)C1` (stereo not drawn), for which the z-score is -0.518.
As for `O=c1nc(-c2ccccc2)n(-c2ccccc2)c2ncccc12`, the z-score is -0.171.
For `COc1ccc(OC)c(NC(=O)c2ccccc2SC)c1` the value was 0.39; for `CC(C)Cc1nc2oc3c(N4CCN(C)CC4)ncnc3c2c2c1CCCC2`, -0.0108.
Consider `NNC(=O)CN1C(c2cccc(Cl)c2)=Nc2ccc(Br)cc2C1c1ccccc1` (stereo not drawn), for which the z-score was -0.63.
For the compound `N#Cc1nc(-c2ccco2)oc1N1CCN(c2ccccc2)CC1`, the z-score is -0.599.
Take `O=C(COC(=O)c1ccccn1)NC12CC3CC(CC(C3)C1)C2`: the z-score is -0.209.
In turn, `O=C(CCn1c(=O)oc2ccccc21)Nc1nccs1` came in with a z-score of -0.469.
The value for `O=S(=O)(N1CCOCC1)n1cnc2ccccc21` was -0.00444; that for `COc1ccc(C(=O)OCC(=O)NC(C)(C)C)cc1[N+](=O)[O-]` was -0.195.
Compound `CCCN(CCC)S(=O)(=O)c1ccc(C(=O)Nc2nc(-c3ccccc3)c(C(=O)OCC)s2)cc1` returned a z-score of -0.243.
For the compound `C=CCn1c(SCc2nc3cc(C(=O)OC)ccc3c(=O)[nH]2)nc2sc(CC)cc2c1=O`, the z-score was -0.336.
For `COCCn1c(-c2ccsc2)nc2c1c(=O)[nH]c(=O)n2CC(C)C` the value was -0.162; for `Nc1c(-c2ccccc2)cnn1-c1cccc(C(F)(F)F)c1`, 0.455.
For `CCCOc1nc2c(c(=O)n(C)c(=O)n2C)n1Cc1cccc2ccccc12` the value was -1.58.
Compound `Cc1ccc(NS(=O)(=O)c2cc(C(=O)O)ccc2Cl)c(C)c1` came in with a z-score of 0.297.
`Cc1[nH]c2ccccc2c(=O)c1SC(F)(F)C(F)C(F)(F)F` (stereo not drawn) registered a z-score of -0.124.
For `COc1cc(-c2ccc(NC(=O)c3ccc(C)cc3)c(OC)c2)ccc1NC(=O)c1ccc(C)cc1` the value was 0.305; for `CC(C)NC(=O)C1(c2ccccc2)CC1(Cl)Cl` (stereo not drawn), -0.174; for `COc1ccc2[nH]c(=O)c(CN(C)C(=O)COc3ccccc3)cc2c1`, -0.067.
For `CCCC(C)C(=O)Nc1ccc(C(N)=O)cc1` (stereo not drawn) the value was 0.643.
The value for `COC(=O)c1ccc2c(c1O)C(=O)c1ccccc1C2=O` was -0.118.
Take `CCOC(=O)C(Cc1ccc(NC(=O)/C(=C/c2ccc(OC(C)=O)cc2)NC(C)=O)cc1)N1C(=O)c2ccccc2C1=O` (stereo not drawn): the z-score was -0.122.
The value for `N#CC1=C(N)OC2=C(CCc3ccccc32)C1c1ccccc1Cl` (stereo not drawn) was -0.697.
For `COC(=O)CC1=C(C(=O)OC)C(c2cccc(OCC(N)=O)c2)C(C#N)=C(N)O1` (stereo not drawn) the value was 0.281.
The value for `O=C(O)C1C2C=CC(C2)C1C(=O)NC(c1ccccc1)c1ccccc1` (stereo not drawn) was -0.597; that for `CCc1ccc(CNc2ccc(N3CCN(C(C)=O)CC3)cc2)cc1` was 0.968; that for `Cn1ncc2c(NNC(=O)c3ccccc3Cl)ncnc21` was 0.3.
Compound `CCCCSC(=S)N(C)C1CCS(=O)(=O)C1` (stereo not drawn) gave a z-score of -0.328.
The value for `CCOc1ccc(NC(=NCc2ccc3c(c2)OCO3)SC2CC(=O)N(c3ccccc3)C2=O)cc1` (stereo not drawn) was 0.522.
Compound `CC(C)Nc1nc(Oc2cccc(Cl)c2Cl)cc(C(F)(F)F)n1` registered a z-score of 0.0496.
Regarding `Cc1cnn(-c2cc(N/N=C/c3ccc(F)cc3)ncn2)c1`, the z-score came out at 0.269.
With `CCNC(=O)CN(c1ccccc1OC)S(=O)(=O)c1cccs1`, the z-score was -0.183.
`CCOc1cc(NC(=O)CC(C)C)c(OCC)cc1NC(=O)CCn1nnc2ccccc21` gave a z-score of -0.418.
`Cc1ccc(N2C(=O)C3C(c4ccccc4)(C2=O)C3(c2ccccc2)c2ccccc2)cc1` (stereo not drawn) displayed a z-score of 0.0494.
For `CN(C)/C=C1/Sc2ccccc2C1=O` the value was -0.0219; for `CC(C(=O)O)n1nc2ccccc2n1` (stereo not drawn), -0.97; for `CS(=O)(=O)Nc1nnc(SCC(=O)Nc2cccc([N+](=O)[O-])c2)s1`, 0.477.
With `O=C(/C=C/c1ccc2c(c1)OCO2)Nc1nc(-c2ccccc2)cs1`, the z-score is -0.421.
In turn, `CCOC(=O)c1cnc2ccc(C(=O)OC)cc2c1NCc1ccco1` yielded a z-score of 0.0624.
With `CCC(=O)N1CC2(CC(c3cccc([N+](=O)[O-])c3)=NO2)C[C@H]1C(=O)NCC(N)=O` (stereo partly drawn), the z-score stood at 0.0194.
For `COCc1cc(C)nc(Nc2ccc(C)cc2C)c1C#N` the value was -0.225; for `CC(C)CC(NC(=O)c1ccc(Cl)cc1)C(=O)OCc1cc([N+](=O)[O-])cc2c1OCOC2` (stereo not drawn), -0.288; for `CCOc1cc(CNCCO)c(Cl)cc1OCC(=O)NCCc1ccccc1`, -0.0763.
For `CCOc1ccc(S(=O)(=O)Nc2nc3cc(OC)ccc3s2)cc1` the value was -0.168; for `Cc1sc2nc(CN3CCCCC3)nc(Cl)c2c1C`, -0.502; for `Cc1ccc(NS(=O)(=O)c2ccc(NC(=O)c3ccc(Br)o3)cc2)c(C)c1`, 0.578.
`N#Cc1c(NC(=O)CSc2nc(-c3ccco3)cc(C(F)(F)F)n2)sc2c1CCCC2` showed a z-score of 0.333.
For `COC(=O)c1cc(-c2ccccc2)n[nH]1` the value was 0.823.
For `COc1ccc(C)cc1S(=O)(=O)N(C)CC(=O)Nc1ccc2c(c1)OCCO2`, the z-score was -0.335.
The value for `COc1ccc(/C=C(/NC(=O)c2ccccc2)C(=O)N/N=C/c2sccc2C)cc1` was -0.284; that for `COC(=O)CSc1ncccc1-c1nc2ccccc2[nH]1` was -0.428; that for `CCSc1nnc(NC(=O)CSc2nnc(-c3c[nH]c4ccccc34)n2C)s1` was -0.196.
The value for `O=C(C1=C[C@@H]2[C@H]3C(=O)N(c4ccc(Cl)cc4)C(=O)[C@H]3[C@@H](C(=O)c3ccc(Cl)cc3)N2C=C1)c1ccccc1` was 0.212; that for `O=C(/C=C1\NC2(CCCC2)Cc2ccccc21)C(=O)N/N=C/c1ccccc1O` was -0.29; that for `COc1ccccc1N(C)S(=O)(=O)c1ccc(C(=O)OCC(=O)NCCC2=CCCCC2)cc1` was 0.0923.
`CCOC(=O)N1CCN(C(=O)CSc2nnc(CNC(=O)c3ccccc3F)o2)CC1` registered a z-score of -0.16.
For `Cc1cccc(CS(=O)(=O)Cc2ccc(C(=O)O)o2)c1` the value was 0.861.
As for `Cc1nc2cc(C(F)(F)F)ccc2n1C1CCN(CC(=O)N2CCOCC2)CC1`, the z-score is -0.233.
On to `Cc1cc(Cl)ccc1NC(=S)N1CCN(C(=O)C2CCCO2)CC1` (stereo not drawn), for which the z-score was -0.0233.
`Cc1ccc(NC(=O)C2(c3cccs3)CCOCC2)cc1C` returned a z-score of -0.0938.
In the case of `COc1ccc([N+](=O)[O-])cc1NC(=O)Cc1c(Cl)cccc1Cl`, the z-score is -0.12.
As for `CCCCn1c(CN2CCN(c3ccccc3)CC2)nc2c1c(=O)n(C)c(=O)n2C`, the z-score is -0.779.
For `CCn1c(CSc2nc(C)cc(C)n2)nnc1SCC(=O)Nc1cccc2ccccc12` the value was -2.2; for `COc1ccccc1N1CCN(C(=O)c2cc3c(-c4ccc(Cl)cc4)nn(C)c3s2)CC1`, -0.537; for `CN1CCN(/C(=N\O)c2nonc2N)CC1`, 0.8.
For `O=C(Nc1cnn(Cc2ccc(Cl)c(Cl)c2)c1)c1nc2ncccn2n1` the value was -0.834.
The value for `CCc1nnc(SCC(=O)N2CCCc3ccccc32)nc1CC` was -0.635; that for `O=C(Nc1ccc2oc(Cc3ccc(Cl)cc3)nc2c1)c1cccnc1` was -0.377.
With `CC1SC(c2ccccc2Cl)NC1=O` (stereo not drawn), the z-score was -0.0543.
For `Cc1ccc(S(=O)(=O)N2CCOCC2)c2nsnc12` the value was -0.358; for `O=C1NN(c2ccccc2)C(=O)/C1=C\c1ccccc1OCC(=O)N1CCOCC1`, -0.207.
Consider `CC(Sc1nc2ccc(Br)cc2[nH]1)C(=O)O` (stereo not drawn), for which the z-score was -0.936.
The value for `CCCn1c(/C=C/c2ccco2)nc2ccccc21` was -0.653; that for `Cc1ccc(Sc2c(C(=O)Nc3ccc(F)cc3F)c(C(F)(F)F)nn2C)cc1` was -0.15; that for `CCc1nnc(NC(=O)c2c(OC)cccc2OC)s1` was -0.213.
For `COC(=O)C1=C(C)NC(C)=C(C(=O)OC)C1c1ccc(-c2cc(Cl)ccc2Cl)o1` the value was -0.164; for `COc1ccccc1OCCCCCc1c(C)n[nH]c1C`, -0.151.
The value for `O=C(NCCCCCCNC(=O)c1ccc(Br)s1)c1ccc(Br)s1` was -0.926; that for `COc1ccc(NC(=O)NCCCN2CCCC2=O)c(OC)c1` was -0.496.
For `O=C(N/N=C/c1cccnc1)C(O)c1ccccc1` (stereo not drawn), the z-score is -0.144.
For `c1ccc(N2CCN(c3cnc4ccccc4n3)CC2)cc1`, the z-score stood at 1.09.
With `CC(C)Cn1c(-c2csc3ccccc23)n[nH]c1=S`, the z-score was 0.509.
The compound `CC1CCC(NC(=O)CC2Oc3ccccc3NC2=O)CC1` (stereo not drawn) displayed a z-score of -0.471.
For `CC(c1nc2ccccc2o1)N1C(=O)c2ccccc2C1=O` (stereo not drawn) the value was -0.0989.
In turn, `CC1=CC2(O)OCCN(CCO)C2=CC1=O` (stereo not drawn) had a z-score of 0.00259.
The value for `Cc1sc2ncn(CC(=O)NCCCC(=O)N3CCN(c4ccccc4)CC3)c(=O)c2c1C` was 0.62.
As for `COc1cccc(OCC(=O)Nc2cc(Cl)ccc2Oc2ccccc2)c1`, the z-score amounted to 0.0395.
For `CC1=CCC(C(=O)O)(C(=O)N/N=C/c2cccs2)C(c2ccc(F)cc2)C1` (stereo not drawn) the value was -0.338; for `CCC(=O)Oc1ccc(C/C(=N\O)c2ccc(O)cc2O)o1`, active: -4.27; for `COCCn1c(COc2ccc(OC)cc2)nc2ccccc21`, -0.206.
The value for `Cc1cc(C)n(-c2ccc(C(=O)NC(C)C)cc2)n1` was 0.502.
The value for `Cc1cc(N)n2nc(C)c(-c3ccccc3)c2n1` was -0.519; that for `CC1Oc2ccccc2C=C1C1/C(=C(/O)c2ccccc2)C(=O)C(=O)N1CCCN(C)C` (stereo not drawn) was -0.085; that for `Cc1ccc(N2C(=O)[C@@H]3[C@H](C2=O)[C@H]2C=C(C(=O)c4ccccc4)C=CN2[C@@H]3C(=O)c2ccc(Cl)cc2)cc1` was 0.782.
`Cc1nc(Nc2nc(CSc3nc4ccccc4[nH]3)cc(=O)[nH]2)nc2ccccc12` came in with a z-score of -0.218.
For `CCCCOc1ccc(NC(=O)C2OC3OC(C)(C)OC3C3OC(C)(C)OC23)cc1` (stereo not drawn) the value was -0.0505; for `Cc1ccc(C(=O)NNC(=O)C2CCN(Cc3ccccc3)CC2)cc1`, 0.137.
`CC(=O)c1cccc(NC(=O)N2CCCC2C(=O)NCc2ccc(C)cc2)c1` (stereo not drawn) showed a z-score of -0.0933.
Compound `O=C(O)CCc1ccc(-c2cccs2)n1NC(=O)c1ccccc1Br` came in with a z-score of -0.93.
For `c1ccc2cc(Sc3ncnc4c3oc3ccccc34)ccc2c1` the value was -0.143.
In the case of `Cc1ccc(-c2nnc(SCC(C)C)n2C)cc1`, the z-score was determined as 0.0158.
The compound `O=C1CC(Nc2ccc3ccccc3c2)C(=O)N1Cc1ccccc1` (stereo not drawn) returned a z-score of -0.0912.
For `CCOC(=O)C1=NNC(C(=O)c2ccc(OC)cc2)C1c1ccccc1` (stereo not drawn), the z-score was active: -4.76.
For `C/C(=N\NC(=O)c1ccc(F)cc1)c1cccc(NC(=O)c2ccco2)c1` the value was -0.249; for `O=c1c2[nH]c3ccccc3c2ncn1CCN1CCNCC1`, 0.252.
For `Cc1ccc(S(=O)(=O)n2ccc3cccnc32)cc1` the value was -0.282; for `CCOc1cc(/C=N/n2cnnc2)ccc1OC(=O)c1cccc([N+](=O)[O-])c1`, -0.261.
